Drawing on PubChem BioAssay AID1645887 (National Center for Advancing Translational Sciences (NCATS), 2021), this text covers activation for 25 molecules.

Screen size: about 16,000 compounds; about 40 (0.2%) were called active. Not shown: some 1% with an inconclusive outcome. The call rests on the fitted dose curve; in most records, active means well fitted activation curve with a large enough effect; inconclusive means small, poorly fitted or top-dose-only effect, or another doubt; inactive means no such curve, though single readings can be large or run the other way. This is one part of the list.
On the % scale 0 is the no-effect control and ±100 the full control effect.

UniProt Q8WZA2, sequence (Q8WZA2 whole entry, looked up): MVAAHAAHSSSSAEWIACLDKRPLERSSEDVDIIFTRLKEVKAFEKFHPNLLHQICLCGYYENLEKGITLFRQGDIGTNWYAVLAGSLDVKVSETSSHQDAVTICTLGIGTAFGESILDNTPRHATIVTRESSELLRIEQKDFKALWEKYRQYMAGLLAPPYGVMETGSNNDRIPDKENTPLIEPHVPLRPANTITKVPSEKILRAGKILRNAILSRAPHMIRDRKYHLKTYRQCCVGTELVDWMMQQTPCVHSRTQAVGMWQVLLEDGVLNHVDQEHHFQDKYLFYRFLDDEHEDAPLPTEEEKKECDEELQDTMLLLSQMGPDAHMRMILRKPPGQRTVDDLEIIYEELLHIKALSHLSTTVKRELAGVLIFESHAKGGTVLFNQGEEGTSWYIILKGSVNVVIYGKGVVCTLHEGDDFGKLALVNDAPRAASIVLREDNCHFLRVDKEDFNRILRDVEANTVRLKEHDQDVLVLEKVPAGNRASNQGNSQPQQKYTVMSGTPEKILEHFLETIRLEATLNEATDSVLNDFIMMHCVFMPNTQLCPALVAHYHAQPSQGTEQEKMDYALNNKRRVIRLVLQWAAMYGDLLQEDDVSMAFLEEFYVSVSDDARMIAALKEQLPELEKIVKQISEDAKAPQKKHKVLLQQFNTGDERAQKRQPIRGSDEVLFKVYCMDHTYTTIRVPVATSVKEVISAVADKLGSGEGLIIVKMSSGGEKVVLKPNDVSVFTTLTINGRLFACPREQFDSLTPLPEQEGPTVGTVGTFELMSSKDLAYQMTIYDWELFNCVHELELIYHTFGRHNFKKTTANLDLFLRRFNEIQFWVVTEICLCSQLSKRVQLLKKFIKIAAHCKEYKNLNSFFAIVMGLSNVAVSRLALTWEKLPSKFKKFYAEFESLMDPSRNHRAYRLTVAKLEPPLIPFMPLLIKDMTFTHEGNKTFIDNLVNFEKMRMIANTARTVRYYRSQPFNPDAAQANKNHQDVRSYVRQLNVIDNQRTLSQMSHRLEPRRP

For the assay, the target named is Rap guanine nucleotide exchange factor 4 (Homo sapiens) (UniProt Q8WZA2). Description: Validation qHTS for agonist of cAMP-regulated guanine nucleotide exchange factor 4 (EPAC2).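 Further: exchange makes BODIPY-GDP fluorescence drop when released from Rap1B; series mostly up to about 150 µM.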 Particulars: EPAC2 Rap1B BODIPY-GDP exchange, fluorescence; activation: active compounds read high. The gist of the method:
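Signal normalized against 6.5 mM cAMP as agonist control. Mix of EPAC2 (100 nM), RAP1B-BODIPY-GDP (250 nM) and GDP (50 uM) was read kinetically at 480/540 nm, every 5 min over 30 min, after 5 min room-temperature incubation with compound.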
Regarding `CO/N=C(\C(=O)N[C@@H]1C(=O)N2C(C(=O)O)=C(CSc3nc(=O)c(O)nn3C)CS[C@H]12)c1csc(N)n1`, the activation was inactive: -10.9%.
In the case of `NC(=O)CC[C@@H](N)C(=O)O` it was inactive: -19.5%; in that of `Cc1cc2ccc(=O)oc2cc1OC[C@@H](O)C(C)(C)O`, inactive: 1.78%; in that of `CCCCOC(=O)NS(=O)(=O)c1sc(CC(C)C)cc1-c1ccc(Cn2c(CC)nc3c(C)cc(C)nc32)cc1`, inactive: -71.8%.
Turning to `O=C(Cc1cccs1)N[C@@H]1C(=O)N2C(C(=O)[O-])=C(C[n+]3ccccc3)CS[C@H]12`, the activation is inactive: -11.2%.
In the case of `Cn1nccc1C(=O)NCC1CCC2(CCN(Cc3ccc(-c4ccc(Cl)cc4)o3)CC2)O1` (stereo not given), the activation was inactive: -1.07%.
With `CC(C)=O`, the activation was inactive: 1.69%.
For `Cn1cc(CN2CCOc3ccc(C(O)C4CCCCC4)cc3C2)cn1` (stereo not given), the activation is inactive: -4.71%.
In the case of `CC1CN(CC(=O)NCc2ccc3c(c2)OCO3)Cc2cc(Cl)ccc2O1` (stereo not given) it was inactive: -18.1%.
The figure for `COc1cccc(-c2oc3ccccc3c(=O)c2O)c1` is inactive: 2.7%; for `COc1ccc2[nH]cc(CCNc3nc(-c4ccoc4)nc4ccccc34)c2c1` it is inactive: 0.308%; for `COc1ccc(N2C(=O)[C@@H]3C[C@H]2CN3Cc2cccn2-c2ccccn2)cc1Cl` it is inactive: 2.13%.
In the case of `OB(O)O` it was inactive: 8.43%; in that of `COCc1ccc(CN2CCOc3c(cc(-c4cc(C)c5cccc(OC)c5n4)cc3OC)C2)o1`, inactive: -2.23%.
For the molecule `Fc1ccc(N2CCN(Cc3ccc4c(c3)CN(Cc3cccn3-c3cccnc3)CCO4)CC2)cc1`, the activation is inactive: -6.77%.
In the case of `Clc1ccccc1-c1nccc(NCc2ccccc2)n1` it was inactive: -17.5%.
In the case of `C=C1C(=O)OC2C[C@@]3(C)CCCC(C)C3=CC12` (stereo not given in full), the activation was inactive: 8.26%.
The figure for `CC(C)=CCN1CCC2(CCc3ccccc32)CC1` is inactive: 3.48%.
In the case of `COc1ccccc1-c1ccnc(-n2ncc(C(=O)NCCc3ccccn3)c2C)n1` it was inactive: 1.35%.
In the case of `FC(F)(F)c1ccccc1-c1ccc2ncnc(NCc3cccnc3)c2c1` it was inactive: -4.36%.
Take `COc1ccccc1CCn1c(=O)c(-c2cccs2)nc2cncnc21`: the activation was inactive: -5.5%.
For `COc1ccc(-n2c(=O)c(-c3cccc(F)c3)nc3cncnc32)cc1`, the activation was inactive: -1.59%.
`COc1ccc(C(=O)N2CCC3(CCCN(Cc4ccccc4OC)C3)CC2)cc1`: the activation is inactive: -5.71%.
In the case of `CN1CCN(c2ncnc3ccc(-c4cccc(NS(C)(=O)=O)c4)cc23)CC1` it was inactive: -11.2%; in that of `Cc1cc(C)n(-c2ccc(C(=O)N3CCc4c(cnc(C)c4CNC(=O)c4ccccc4F)C3)cc2)n1`, inactive: -25.1%.
